Results reported in the supplement of paper PMC12217912.
This is one part of the list. The full chains were built here from the parent and the listed change. Inactive controls read about 0.05.

B1: TEV protease; numbered along this chain (parent)
chain: MGESLFKGPRDYNPISSSICHLTNESDGHTTSLYGIGFGPFIITNKHLFRRNNGTLVVQSLHGVFKVKDTTTLQQHLVDGRDMIIIRMPKDFPPFPQKLKFREPQREERICLVTTNFQTKSMSSMVSDTSCTFPSGDGIFWKHWIQTKDGQCGSPLVSTRDGFIVGIHSASNFTNTNNYFTSVPKNFMELLTNQEAQQWVSGWRLNADSVLWGGHKVFMVKPEEPFQPVKEATQL

Variants of: B1
Assay: raw area under fraction-flipped curve 0-4 h after induction (AUC4h, not background-subtracted), DNA-recorder readout of cleavage of the substrate (dimensionless); higher = more cleavage of the substrate by the protease variant
Settings: temperature: 34 °C; time window: 0-4 h after rhamnose induction
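Note: Bxb1 expression induced with 0.2% (w/v) L-rhamnose at OD600 near 0.5, cultures sampled hourly, flipped fraction per protease–substrate barcode pair counted by paired-end Illumina sequencing.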

Variant	area with substrate ENLYDQS	area with substrate ENLYEQS	area with substrate ENLYHQS	area with substrate ENLYIQS	area with substrate ENLYKQS	area with substrate ENLYLQS	area with substrate ENLYMQS	area with substrate ENLYNQS	area with substrate ENLYPQS	area with substrate ENLYSQS	area with substrate ENLYTQS	area with substrate ENLYVQS	area with substrate ENLYWQS	area with substrate ENLYYQS	area with substrate ENLYGQS	area with substrate ENLYQQS	area with substrate ENLYRQS
MGESLFKGPRDYNPISSSICHLPNESDGHTTSLYGIGFGPFIITNKHLFRRNNGTLVVQSLHGVFKVKDTTTLQQHLVDGRDMIIIRMPKDFPPFPQKLKFREPQREERICLVTTNFQTKSMSSMVSDTSCTFPSGDGIFWKHWIQTKDGQCGSPLVSTRDGFIVGIHSASNFTNTNNYFTSVPKNFMELLTNQEAQQWVSGWRLNADSVLWGGHKVFMVKPEEPFQPVKEATQL [T23P]	0.0396	0.0449	0.0427	0.0464	0.0394	0.0248	0.0376	0.0438	0.0381	0.0483	0.0484	0.0352	0.0419	0.0513			
MGESLFKGPRDYNPIMSSICHLTNESDGHTTSLYGIGFGPFIITNKHLFRRNNGTLVVQSLHGVFKVKDTTTLQQHLVDGRDMIIIRMPKDFPPFPQKLKFREPQREERICLVTTNFQTKSMSSMVSDTSCTFPSGDGIFWKHWIQTKDGQCGSPLVSTRDGFIVGIHSASNFTNTNNYFTSVPKNFMELLTNQEAQQWVSGWRLNADSVLWGGHKVFMVKPEEPFQPVKEATQL [S16M]	0.0594	0.071	0.0746		0.0673		0.0878	0.0649	0.0747		0.0654	0.144	0.0784		0.0607	0.0593	0.0643
MGESLFKSPRDYNPISSSICHLTNESDGHTTSLYGIGFGPFIITNKHLFRRNNGTLVVQSLHGVFKVKDTTTLQQHLVDGRDMIIIRMPKDFPPFPQKLKFREPQREERICLVTTNFQTKSMSSMVSDTSCTFPSGDGIFWKHWIQTKDGQCGSPLVSTRDGFIVGIHSASNFTNTNNYFTSVPKNFMELLTNQEAQQWVSGWRLNADSVLWGGHKVFMVKPEEPFQPVKEATQL [G8S]	0.0644	0.0575	0.0628				0.081	0.0603	0.0673						0.0537	0.168	0.0446
MGESLFKGPRDYNPISSSICHLTNESPGHTTSLYGIGFGPFIITNKHLFRRNNGTLVVQSLHGVFKVKDTTTLQQHLVDGRDMIIIRMPKDFPPFPQKLKFREPQREERICLVTTNFQTKSMSSMVSDTSCTFPSGDGIFWKHWIQTKDGQCGSPLVSTRDGFIVGIHSASNFTNTNNYFTSVPKNFMELLTNQEAQQWVSGWRLNADSVLWGGHKVFMVKPEEPFQPVKEATQL [D27P]	0.0587	0.0426	0.0599	0.0961	0.0656				0.0259	0.0706	0.0618	0.118	0.0843			0.0558	0.0512
MGESLFKGPRDYNPISSSICHLTNESDGHTTSLYGIGFGPFIITNKHLFRRNNGTLVVQSLHGVFKVKDTTTLQQHLVDGRDMIIIRMPKDFPPFPQKLKFREPQREERICLVTTNFQTKSMSSMVSDTSCTFPSGDGIFWKHWIQTKDGQCGSPLVSTRDGFIVGIHSASNFTNNNNYFTSVPKNFMELLTNQEAQQWVSGWRLNADSVLWGGHKVFMVKPEEPFQPVKEATQL [T176N]	0.0627	0.0517	0.0712	0.0965	0.0716		0.0588		0.0637	0.0498		0.0708	0.0452		0.0886		0.0415
MGESLFKGPRDYNPISSSICHLTNESDGHTTSLYGIGFGPFIITNKHLFRRNNGTLVVQSLHGVFKVKDTTTLQQHLVDGRDMIIIRMPKDFPPFPQKLKFREPQREERICLVTTNFQTKSMSSMVSDTSCTFPSGDGIFWKHWIQTKDGQCGSPLVSTRDGFIVGIHSASNFTNFNNYFTSVPKNFMELLTNQEAQQWVSGWRLNADSVLWGGHKVFMVKPEEPFQPVKEATQL [T176F]	0.0611				0.0544		0.0658									0.0663	
MGESLFKGPRDYNPISSSICHLTNESDGHTTSLYGIGFGPFIITNKHLFRRNNGTLVVQSLHGVFKVKDTTTLQQHLVDGRDMIIIRMPKDFPPFPQKLKFREPQREERICLVTTNFQTKSMSSMVSLTSCTFPSGDGIFWKHWIQTKDGQCGSPLVSTRDGFIVGIHSASNFTNTNNYFTSVPKNFMELLTNQEAQQWVSGWRLNADSVLWGGHKVFMVKPEEPFQPVKEATQL [D128L]	0.0628	0.0827	0.0776	0.138	0.0654		0.111	0.0778	0.0812		0.086	0.163	0.0981	0.0892	0.0743	0.0605	
MGESLFKGPRDYNPISSSICHLTWESDGHTTSLYGIGFGPFIITNKHLFRRNNGTLVVQSLHGVFKVKDTTTLQQHLVDGRDMIIIRMPKDFPPFPQKLKFREPQREERICLVTTNFQTKSMSSMVSDTSCTFPSGDGIFWKHWIQTKDGQCGSPLVSTRDGFIVGIHSASNFTNTNNYFTSVPKNFMELLTNQEAQQWVSGWRLNADSVLWGGHKVFMVKPEEPFQPVKEATQL [N24W]	0.0626	0.0607	0.0601	0.12	0.0651		0.0646	0.0835	0.0636	0.0592		0.0697	0.0708	0.0617	0.0622	0.0613	0.0664
MGESLFKGPRDYNPISSSICHLTTESDGHTTSLYGIGFGPFIITNKHLFRRNNGTLVVQSLHGVFKVKDTTTLQQHLVDGRDMIIIRMPKDFPPFPQKLKFREPQREERICLVTTNFQTKSMSSMVSDTSCTFPSGDGIFWKHWIQTKDGQCGSPLVSTRDGFIVGIHSASNFTNTNNYFTSVPKNFMELLTNQEAQQWVSGWRLNADSVLWGGHKVFMVKPEEPFQPVKEATQL [N24T]	0.0623	0.0499	0.0583	0.107	0.0172	0.0718	0.065	0.063		0.0193	0.0636	0.0989	0.0512		0.0649		0.0686
